In PubChem BioAssay AID463173 (ICCB-Longwood Screening Facility, Harvard Medical School, 2010):
In all, about 52,000 compounds went through this assay and about 1,700 (3.3%) were called active. Cut-off read from the data, not from the text of the source: active = survival mostly below about 52% (no sharp cut-off); inactive = mostly above about 56%. This is one part of the list.

test system: Wild type; test: growth inhibition of S. aureus wild type versus tarO mutant, primary screen, teichoic acid synthesis inhibitors, RN4220, OD600 (AID 463173); conditions: S. aureus RN4220 wild type/DeltatarO growth, OD600, 18 h, stronger effect = lower value, screened at 18.75 µg/mL (by protocol)

Row | SMILES | survival
1 | COCC(C)NCc1ccccc1C (configuration not stated) | inactive: 100%
2 | CCOC(=O)C1C(=O)N(C(=O)c2cncc(Br)c2)CC1c1ccccc1 (configuration not stated) | inactive: 112%
3 | CN(C1CCCCC1)S(=O)(=O)c1ccc2c(c1)c(=O)c(C(=O)NCc1ccc(Cl)cc1)cn2C | inactive: 84%
4 | O=C(CN1C(=O)CC(c2ccc(F)cc2)=Nc2ccccc21)NCc1ccccc1Cl | inactive: 71%
5 | Cc1ccc(C)c(Nc2nn3c(=O)c4ccc(C(=O)NCc5cccs5)cc4nc3s2)c1 | inactive: 65%
6 | CC(NC(=O)c1cc2sccc2n1Cc1ccc(F)cc1)c1ccccc1 (configuration not stated) | inactive: 88%
7 | O=C(Cn1c(C(=O)N2CCN(C3CCCCC3)CC2)cc2sccc21)c1ccccc1 | inactive: 116%
8 | COc1ccc(-c2nn(-c3ccc(F)cc3F)c3c2cnc2ccc(F)cc23)cc1 | inactive: 71%
9 | CC(=O)N1CCCc2cc(S(=O)(=O)NCc3ccc(OC(C)C)cc3)ccc21 | inactive: 77%
10 | CCc1cccc(C)c1NS(=O)(=O)c1ccc(-n2cccn2)cc1 | inactive: 128%
11 | Cn1c(=O)oc2cc(S(=O)(=O)Nc3ccccc3)ccc21 | inactive: 78%
12 | CCOc1ccc(-c2nonc2NC(=O)c2oc3cc(Br)ccc3c2C)cc1 | inactive: 100%
13 | N#Cc1ccccc1NC(=O)C(=O)NCC(c1cccnc1)N1CCN(c2ccccc2)CC1 (configuration not stated) | inactive: 99%
14 | Cc1cccc(C(=O)Nc2cccc(C(=O)OCc3cc(=O)n4nc(C5CC5)sc4n3)c2)c1 | inactive: 59%
15 | CCN1CCN(C(=O)c2ccc3c(c2)N(Cc2cc(C)ccc2C)C(=O)c2ccccc2S3(=O)=O)CC1 | inactive: 81%
16 | Cc1ccc(OCC(=O)Nc2ccc(-c3nc4ccc(C)cc4o3)cc2)cc1 | inactive: 66%
17 | CCOc1ccc(C(=O)Nc2ccc3nc(SCC(=O)N4CCOCC4)sc3c2)cc1 | inactive: 105%
18 | CCCSCCCNC(=O)CN1C(=O)COc2ccc(S(=O)(=O)N3CCCCCC3)cc21 | inactive: 79%
19 | COc1cc(SC)ccc1C(=O)NCC#N | inactive: 92%
20 | CCOc1ccccc1Nc1ccc2cc(S(=O)(=O)N3CCCCC3)ccc2n1 | inactive: 76%
21 | CCOC(=O)c1c(C)oc2nc(C)nc(NCCc3ccc(S(N)(=O)=O)cc3)c12 | inactive: 73%
22 | O=C(NCCc1ccccc1)c1cnc2sc(N3CCOCC3)nn2c1=O | inactive: 143%
23 | CCOC(=O)c1[nH]cnc1C(=O)N1CCOCC1 | inactive: 121%

Row | SMILES | survival
24 | CCCOc1ccc(CNC(=O)C2CCN(c3nn4c(=O)cc(C)nc4s3)CC2)cc1 | inactive: 124%
25 | COc1ccc(CCC(=O)NCc2ccc3c(c2)CCN3C(=O)c2cccc(C)c2)cc1 | inactive: 67%
26 | Cc1cc(NC(=O)CN(c2cccc(C)c2C)S(=O)(=O)c2ccccc2)ccc1Br | inactive: 91%
27 | O=C(Nc1ccc(F)cc1F)C1CCCN1S(=O)(=O)c1cccc2nsnc12 (configuration not stated) | inactive: 77%
28 | COc1cc(CNCCSc2nnnn2C)ccc1OCc1c(F)cccc1Cl | inactive: 73%
29 | CCOC(=O)c1[nH]c(C)c(C(=O)NCc2ccc(F)cc2)c1C | inactive: 90%
30 | Cc1cccc(-c2nnc(SCCC(=O)O)o2)c1 | inactive: 75%
31 | COc1ccc(N2CCN(c3oc(/C=C/c4cccc(OC)c4)nc3C#N)CC2)cc1 | inactive: 83%
32 | CCc1ccc(CNC(=O)C2CCN(c3nnc(-n4c(C)ccc4C)s3)CC2)cc1 | inactive: 70%
33 | CCOc1ccc(CCNC(=O)c2cnc3c(-c4ccccc4)c(C)nn3c2C)cc1OCC | active: -3%
34 | Cc1cccc(NC(=O)CN2C(=O)CCc3ccccc32)c1C | inactive: 115%
35 | COc1ccccc1CNC(=O)C(C)n1c(=O)cc(C(F)(F)F)c2c(C)nn(C)c21 (configuration not stated) | inactive: 78%
36 | CC(C)c1ccc(OCC(=O)Nc2cc(-c3nc4ncccc4o3)ccc2Cl)cc1 | inactive: 128%
37 | O=[N+]([O-])c1ccc(C(c2sc3nc(-c4ccco4)nn3c2O)N2CCC3(CC2)OCCO3)cc1 (configuration not stated) | inactive: 68%
38 | COc1cc(C2CC(=O)Nc3cc4c(cc32)OCCO4)cc(OC)c1O (configuration not stated) | inactive: 84%
39 | CCCCN(CCCC)c1nc(-c2ccccc2)nc2ccccc12 | active: -3%
40 | CCCC1=C(C(=O)OCC)C(c2cccnc2)n2ncnc2N1 (configuration not stated) | inactive: 109%
41 | CCCCC(=O)Nc1ccc(OCc2cc(=O)n3ccc(C)cc3n2)cc1 | inactive: 72%
42 | CC1(c2ccccc2)CC(C)(C)N(C(=O)c2ccccc2Cl)c2ccccc21 (configuration not stated) | active: -2%
43 | COc1ccccc1C(=O)Nc1c(C(=O)Nc2ccc(C)cc2)oc2ccccc12 | inactive: 75%
44 | Cc1oc(-c2cccc(Cl)c2)nc1CSCC(=O)O | inactive: 84%
45 | CCC(=O)Nc1ccc(C)cc1-c1nc2ccccc2n(Cc2ccccc2)c1=O | inactive: 86%
46 | CCN(C(=O)c1cc2c(Cl)nc3ccc(C)cc3c2s1)c1cc(OC)ccc1OC | inactive: 83%

Row | SMILES | survival
47 | O=C(CN1CCOCC1)n1c2ccccc2c2ccccc21 | inactive: 95%
48 | Cn1c(C(=O)OC(C(=O)NCc2ccccc2)c2ccccc2)cc2sccc21 (configuration not stated) | inactive: 105%
49 | COc1ccc(NC(=O)C2CCCN2S(=O)(=O)c2ccc3c(c2)CCCC(=O)N3)cc1Cl (configuration not stated) | inactive: 63%
50 | O=C(CCS(=O)(=O)c1nc(-c2cccs2)cc(C(F)(F)F)n1)Nc1cccc(O)c1 | inactive: 77%
51 | COc1ccccc1CNC(=O)c1cc(-c2ccccc2)n[nH]1 | inactive: 99%
52 | Cc1ccc(N2C(=O)C(CC(=O)Nc3ccccc3)N(CCC3=CCCCC3)C2=O)cc1 (configuration not stated) | inactive: 87%
53 | O=C(NCCCN1CCN(c2cccc(Cl)c2)CC1)c1nnc(Cc2ccc(F)cc2Cl)o1 | inactive: 45%
54 | Cc1ccc2nc(NC(=O)CSc3ncc(C(=O)Nc4ccccc4)c(=O)n3C)sc2c1 | inactive: 66%
55 | CCc1ccc(S(=O)(=O)c2cnc(SCC(=O)Nc3ccc(OC)cc3OC)[nH]c2=O)cc1 | inactive: 67%
56 | CCOc1ccccc1NC(=O)CN1C(=O)C(=O)c2ccccc21 | inactive: 115%
57 | CCCc1cc(=O)oc2cc(C)c3c(-c4ccccc4)c(C)oc3c12 | active: 0%
58 | CC(C)NC(=O)c1sc2ncccc2c1-n1cccc1 | inactive: 124%
59 | CCOc1ccccc1N(CC)C(=O)c1cc2ccc3cccnc3c2[nH]1 | inactive: 74%
60 | Cn1c2ccc(F)cc2c2nnc(SCCN3CCCCC3)nc21 | inactive: 140%
61 | COCCn1c(COc2ccc(Cl)cc2)nnc1SCC(=O)OC | inactive: 100%
62 | CCOc1ccc(CCNC(=O)c2sc3nc4n(c(=O)c3c2C)CCCC4)cc1 | inactive: 75%
63 | O=C(COc1ccccc1)Nc1ccccc1N1CCN(c2ccccc2)CC1 | inactive: 95%
64 | CCc1ccc(N=C2NC(=O)CS2)cc1 | inactive: 116%
65 | O=C(O)Cn1nc(N2CCN(c3ccccc3)CC2)ccc1=O | inactive: 77%
66 | Cc1sc2c(c1C)c(=O)n(Cc1ccccc1)c(=O)n2CC(=O)Nc1cccc(Cl)c1 | inactive: 91%
67 | Cc1ccccc1C(=O)NCc1ccc2c(c1)CCN2C(=O)c1ccc(F)cc1 | inactive: 63%
68 | CC1CCC(NC(=O)CCc2cn(Cc3ccc(F)cc3)c3ccccc23)CC1 (configuration not stated) | inactive: 90%
69 | COc1ccc(NC(=O)c2nc(S(=O)(=O)Cc3ccc(C)cc3)ncc2Cl)cc1 | inactive: 81%

Row | SMILES | survival
70 | CCOC(=O)Cn1cnc2c(cnn2-c2ccc(C)c(C)c2)c1=O | inactive: 72%
71 | O=C(O)C1=CC(c2ccc(Br)cc2)n2ncnc2N1 (configuration not stated) | inactive: 81%
72 | Cc1nn2c(=O)cc(COC(=O)COc3ccccc3C)nc2s1 | inactive: 70%
73 | CCOc1ccc(C(=O)c2cn(CC(=O)Nc3ccc(C)c(C)c3)c3ccc(OCC)cc3c2=O)cc1 | inactive: 78%
74 | CCS(=O)(=O)c1nc(S(=O)(=O)c2ccc(C)cc2)c(NCc2ccccc2Cl)s1 | inactive: 92%
75 | CCOC(=O)CSc1ncnc2c1c(-c1ccccc1)cn2-c1ccc(OC)cc1 | inactive: 75%
76 | COc1ccc(N2CC(NC(=O)c3ccc(S(=O)(=O)N4CCOCC4)cc3)CC2=O)cc1 (configuration not stated) | inactive: 82%
77 | COc1cc2c(cc1OC)C(COc1ccc(C(C)C)cc1)N(C(=O)COc1ccccc1)CC2 (configuration not stated) | inactive: 75%
78 | COc1ccc(OCC(=O)N2CCN(C(=O)c3ccc(OC)cc3)CC2)cc1 | inactive: 85%
79 | O=C(/C=C/c1ccco1)Nc1ccc(-c2cc3ccccc3oc2=O)cc1 | inactive: 106%
80 | COc1ccc(NC(=O)CC2C(=O)N(c3ccc(C)cc3)C(=O)N2C2CCCC2)cc1 (configuration not stated) | inactive: 121%
81 | CCOc1ccc(Nc2nc(Nc3ccc(OCC)cc3)nc(N3CCOCC3)n2)cc1 | inactive: 82%
82 | COc1ccc(CCNC(=O)CCCn2c(=O)c3cccn3c3ccc(F)cc32)cc1OC | inactive: 63%
83 | Cc1cc(C)nc(/N=C(/N)N2CCCCC2)n1 | inactive: 103%
84 | CC(NC(=O)c1cc2ccccn2n1)c1ccccc1 (configuration not stated) | inactive: 83%
85 | COC(=O)CN1C(=O)C(C)(C)c2cc(S(=O)(=O)Nc3ccc(C(C)C)cc3)ccc21 | inactive: 55%
86 | Cc1ccc(C)c(CN2C(=O)C(O)(c3c[nH]c4ccccc34)c3ccccc32)c1 (configuration not stated) | inactive: 116%
87 | Cc1cn2c(=O)cc(COC(=O)C(C)Oc3ccccc3)nc2s1 (configuration not stated) | inactive: 55%
88 | COC(=O)c1ccc(Cl)cc1NC(=O)N1CCC(CN2CCC(C)CC2)CC1 | inactive: 84%
89 | CCc1cccc(NC(=O)c2coc(=O)c3ccccc23)c1 | inactive: 65%
90 | COc1cccc(NC(=O)c2oc3ccccc3c2NC(=O)Cc2cccc(C)c2)c1 | inactive: 63%
91 | CCc1ccc(-n2nc(CO)c(C(=O)NCCCCc3ccccc3)n2)cc1 | inactive: 85%
92 | O=C(NCc1ccc(Cl)cc1)c1cc(-c2ccc(F)cc2)on1 | inactive: 70%
